Experimental findings from patent US7592316B2, “Peptides as NS3-serine protease inhibitors of hepatitis C virus” (Schering Corporation, priority 2000, dated 2009) are described below.

The target in the first assay is HCV NS3/NS4A protease (strain 1a) (Hepatitis C virus genotype 1a, UniProt P27958). Kind of assay: biochemical. The conditions noted are these: Table 5; HCV NS3/NS4A protease, spectrophotometric assay, 30° C., pH 6.5; read-out: Ki* Range.
Regarding `CC(C)[C@H](NC(=O)OC(C)(C)C)C(=O)N1C[C@H]2[C@@H](C1C(=O)NC1(C(=O)C(N)=O)CC1)C2(C)C` (some centres unmarked), the Ki is > 1000 nM.
Same read-out and setting: to `CCCC(NC(=O)[C@@H]1[C@@H]2[C@H](CN1C(=O)[C@@H](NC(=O)NC(C)(C)C)C1CCCCC1)C2(C)C)C(=O)C(N)=O` (some centres unmarked) belongs 1 to 100 nM; to `CC1(C)[C@@H]2[C@@H](C(=O)NC(CC3CC3)C(=O)C(N)=O)N(C(=O)[C@@H](NC(=O)NC3CCCCC3)C3CCCCC3)C[C@@H]21` (some centres unmarked), 1 to 100 nM.
On to `C=CCCC(NC(=O)[C@@H]1[C@H]2[C@@H](CN1C(=O)[C@@H](NC(=O)OC(C)(C)C)C(C)(C)C)C2(C)C)C(O)C(=O)NC/C=C/C(=O)OCC` (some centres unmarked), for which the Ki is > 1000 nM.
In the case of `C=CCNC(=O)C(=O)C(CCC)NC(=O)C1[C@H]2[C@@H](CN1C(=O)C(NC(=O)OCC(C)C)C1CCC(F)(F)CC1)C2(C)C` (some centres unmarked), the Ki fell in the range of 101 to 1000 nM.
Same read-out and setting: to `C=CCNC(=O)C(=O)C(CCC)NC(=O)[C@@H]1[C@@H]2[C@H](CN1C(=O)[C@H](C(C)C)N(C)C(=O)OC(C)(C)C)C2(C)C` (some centres unmarked) belongs > 1000 nM; to `C=CCNC(=O)C(=O)C(CCC)NC(=O)[C@@H]1[C@@H]2[C@H](CN1C(=O)[C@@H](NC(=O)OC(C)(C)C)C(C)C)C2(C)C` (some centres unmarked), 101 to 1000 nM.
Regarding `CCCC(NC(=O)C1C2C(CN1C(=O)C(NC(=O)OC(C)(C)C)C(C)(C)C)C2(C)C)C(=O)C(=O)NCCC(c1ccccc1)c1ccccc1` (centres unmarked), the Ki was > 1000 nM.
In the case of `CCCC(NC(=O)[C@@H]1C2C(CN1C(=O)C(NC(=O)OC(C)(C)C)C(C)(C)C)C2(C)C)C(=O)C(=O)NC/C=C/c1ccccc1` (some centres unmarked), the Ki was > 1000 nM.
On the same count and under the same terms, to `CCCC(NC(=O)C1C2C(CN1C(=O)C(NC(=O)OC(C)(C)C)C(C)(C)C)C2(C)C)C(=O)C(=O)NCCc1ccccn1` (centres unmarked) belongs > 1000 nM; to `C=CCNC(=O)C(=O)C(CCC)NC(=O)[C@@H]1[C@H]2[C@@H](CN1C(=O)[C@@H](NC(=O)OC(C)(C)C)C1Cc3ccccc3C1)C2(C)C` (some centres unmarked), 101 to 1000 nM; to `C=CCNC(=O)C(=O)C(CCC)NC(=O)[C@@H]1[C@@H]2[C@H](CN1C(=O)[C@@H](NS(=O)(=O)C(C)C)C(C)(C)C)C2(C)C` (some centres unmarked), > 1000 nM.
Same read-out and setting: with `C=CCNC(=O)C(=O)C(CCC)NC(=O)[C@@H]1[C@@H]2[C@H](CN1C(=O)[C@@H](NC(=O)OC(C)C(C)C)C(C)(C)C)C2(C)C` (some centres unmarked) the figure was 101 to 1000 nM.
On the same count and under the same terms, with `C=CCCC(NC(=O)[C@@H]1C2C(CN1C(=O)[C@@H](NC(=O)OC(C)(C)C)C(C)(C)C)C2(C)C)C(=O)C(=O)NCCCOCC` (some centres unmarked) the figure was > 1000 nM.
With `C=CCC(NC(=O)[C@@H]1[C@@H]2[C@H](CN1C(=O)[C@@H](NC(=O)OC(C)(C)C)C1CCCCC1)C2(C)C)C(=O)C(=O)NCC(=O)NCc1ccc(C)cc1` (some centres unmarked), the Ki lay within 101 to 1000 nM.
As for `C=CCCC(NC(=O)[C@@H]1C2C(CN1C(=O)[C@@H](NC(=O)OC(C)(C)C)C1CCCCC1)C2(C)C)C(=O)C(=O)NCC=C` (some centres unmarked), the inhibitory constant (Ki) lay within 101 to 1000 nM.
With `C=CCNC(=O)C(=O)C(CCC)NC(=O)[C@@H]1CC(C)(C)CN1C(=O)[C@@H](NC(=O)O[C@H](C)C(C)C)C(C)(C)C` (some centres unmarked), the Ki was > 1000 nM.
`CCCC(NC(=O)[C@@H]1[C@H]2[C@@H](CN1C(=O)[C@@H](NC(=O)OC(C)(C)C)C(C)(C)C)C2(C)C)C(=O)C(=O)NCCCCc1ccccc1` (some centres unmarked): the Ki was > 1000 nM.
Consider `C=CCNC(=O)C(=O)C(CCC)NC(=O)[C@@H]1[C@H]2[C@@H](CN1C(=O)[C@@H](NC(=O)OC(C)C(C)C)C1Cc3ccccc3C1)C2(C)C` (some centres unmarked), for which the Ki lay within 101 to 1000 nM.
As for `C=CCCC(NC(=O)[C@@H]1[C@H]2[C@@H](CN1C(=O)[C@@H](NC(=O)OC(C)(C)C)C(C)(C)C)C2(C)C)C(=O)C(=O)NCCCNC(=O)OC(C)(C)C` (some centres unmarked), the Ki lay in the range of 101 to 1000 nM.
On the same count and under the same terms, with `C=CCCC(NC(=O)[C@@H]1[C@H]2[C@@H](CN1C(=O)[C@@H](NC(=O)OC(C)(C)C)C(C)(C)C)C2(C)C)C(=O)C(=O)NCCNC(=O)OC(C)(C)C` (some centres unmarked) the figure was > 1000 nM; with `C=CCCC(NC(=O)[C@@H]1[C@@H]2[C@H](CN1C(=O)[C@@H](NC(=O)OC(C)(C)C)C1CCCCC1)C2(C)C)C(=O)C(=O)NCCC(=O)OC(C)(C)C` (some centres unmarked), 101 to 1000 nM; with `C=CCNC(=O)C(=O)C(CCC)NC(=O)[C@@H]1C[C@H](c2ccccc2)CN1C(=O)[C@@H](NC(=O)OC(C)(C)C)C(C)(C)C` (some centres unmarked), > 1000 nM.
On the same count and under the same terms, with `C=CCNC(=O)C(=O)C(CCC)NC(=O)C1C2C(CN1C(=O)[C@H](NC(=O)OC(C)(C)C)C1CCCC(C(=O)OC(C)(C)C)C1)C2(C)C` (some centres unmarked) the figure was 101 to 1000 nM; with `C=CCCC(NC(=O)[C@@H]1[C@@H]2[C@H](CN1C(=O)[C@@H](NC(=O)OC(C)(C)C)C1Cc3ccccc3C1)C2(C)C)C(=O)C(=O)NCC=C` (some centres unmarked), 101 to 1000 nM; with `CCCC(NC(=O)[C@@H]1[C@H]2[C@@H](CN1C(=O)C(NC(=O)OC(C)(C)C)C(C)(C)C)C2(C)C)C(=O)C(=O)NCC1CC1c1ccccc1` (some centres unmarked), > 1000 nM.
Take `C=CCNC(=O)C(=O)[C@@H](CCC)NC(=O)[C@@H]1[C@@H]2[C@H](CN1C(=O)[C@@H](NC(=O)O[C@H](C)C(C)C)C1CCCCC1)C2(C)C`: the Ki was in the range of 101 to 1000 nM.

Staying with this assay, now noted: Table 6; HCV NS3/NS4A protease, 30° C., pH 6.5; read-out: Ki*.
For `C=CCNC(=O)C(=O)C(CCC)NC(=O)[C@@H]1[C@@H]2[C@H](CN1C(=O)[C@@H](NC(=O)O[C@H]1CCC[C@@H]1C)C1CCCCC1)C2(Cl)Cl` (some centres unmarked), the inhibitory constant (Ki) was 1 to 100 nM.
Turning to `C=CCNC(=O)C(=O)C(CC1CCC1)NC(=O)[C@@H]1[C@@H]2[C@H](CN1C(=O)[C@@H](NC(=O)OC(C)(C)C)C(C)(C)C)C2(Cl)Cl` (some centres unmarked), the Ki fell in the range of 101 to 1000 nM.
For the compound `CC(C)(C)NC(=O)N[C@H](C(=O)N1C[C@H]2[C@@H]([C@H]1C(=O)NC(CC1CC1)C(=O)C(=O)NCC(=O)NCc1ccccc1)C2(C)C)C(C)(C)C` (some centres unmarked), the inhibition constant Ki lay within 1 to 100 nM.
Turning to `CC(C)(C)[C@H](NC(=O)OC(C)(C)C(F)(F)F)C(=O)N1C[C@H]2[C@@H]([C@H]1C(=O)NC(CC1CC1)C(=O)C(=O)NCC(=O)NCc1ccccc1)C2(C)C` (some centres unmarked), the Ki was 1 to 100 nM.
Still for that read-out and setting: to `C=CCNC(=O)C(=O)C(CC(F)(F)F)NC(=O)[C@@H]1[C@@H]2[C@H](CN1C(=O)[C@@H](NC(=O)OC(C)(C)C)C(C)(C)C)C2(C)C` (some centres unmarked) belongs 101 to 1000 nM; to `C=CCCC(NC(=O)[C@@H]1[C@@H]2[C@H](CN1C(=O)[C@@H](NC(=O)NC(C)(C)C)C(C)(C)C)C2(C)C)C(=O)C(=O)NCC(=O)OC(C)(C)c1ccccc1` (some centres unmarked), 1 to 100 nM.
Regarding `C=CCCC(NC(=O)[C@@H]1[C@@H]2[C@H](CN1C(=O)[C@@H](NC(=O)NC(C)(C)C)C(C)(C)C)C2(C)C)C(=O)C(=O)NCCC(=O)OC(C)(C)C=C` (some centres unmarked), the Ki fell in the range of 1 to 100 nM.
Same read-out and setting: to `C=CCCC(NC(=O)[C@@H]1[C@@H]2[C@H](CN1C(=O)[C@@H](NC(=O)NC(C)(C)C)C(C)(C)C)C2(C)C)C(=O)C(=O)NCCS(=O)(=O)C(C)(C)C` (some centres unmarked) belongs 101 to 1000 nM.
Take `C=CCCC(NC(=O)[C@@H]1[C@@H]2[C@H](CN1C(=O)[C@@H](NC(=O)NC(C)(C)C)C(C)(C)C)C2(C)C)C(=O)C(=O)NCCS(=O)(=O)c1ccccc1` (some centres unmarked): the Ki lay within 1 to 100 nM.
On the same count and under the same terms, to `C=CCCC(NC(=O)[C@@H]1[C@@H]2[C@H](CN1C(=O)[C@@H](NC(=O)NC(C)(C)C)C(C)(C)C)C2(C)C)C(=O)C(=O)NCC(=O)NCc1ccccc1` (some centres unmarked) belongs 1 to 100 nM; to `C=CCCC(NC(=O)[C@@H]1[C@@H]2[C@H](CN1C(=O)[C@@H](NC(=O)OC(C)(C)C)C1CCCCC1)C2(C)C)C(=O)C(=O)NCCS(=O)(=O)NCC1CC1` (some centres unmarked), 1 to 100 nM.
Still for that read-out and setting: with `C=CCCC(NC(=O)[C@@H]1[C@@H]2[C@H](CN1C(=O)[C@@H](NC(=O)OC(C)(C)C)C1CCCCC1)C2(C)C)C(=O)C(=O)NCCS(=O)(=O)NCc1ccccc1` (some centres unmarked) the figure was 1 to 100 nM; with `C=CCCC(NC(=O)[C@@H]1[C@@H]2[C@H](CN1C(=O)[C@@H](NC(=O)OC(C)(C)C)C1CCCCC1)C2(C)C)C(=O)C(=O)NCCS(=O)(=O)N(C)C` (some centres unmarked), 1 to 100 nM.
On the same count and under the same terms, to `CCCC(NC(=O)[C@@H]1[C@@H]2[C@H](CN1C(=O)[C@@H](NC(=O)OC(C)(C)C)C1CCCCC1)C2(C)C)C(=O)C(=O)NCC(=O)OC(C)(C)c1ccccc1` (some centres unmarked) belongs 1 to 100 nM; to `C#CCCC(NC(=O)[C@@H]1[C@@H]2[C@H](CN1C(=O)[C@@H](NC(=O)OC(C)(C)C)C1CCCCC1)C2(C)C)C(=O)C(=O)NCCC=C` (some centres unmarked), 1 to 100 nM.
Take `CCCC(NC(=O)[C@@H]1[C@@H]2[C@H](CN1C(=O)[C@@H](NC(=O)OC(C)(C)C)C1Cc3ccccc3C1)C2(C)C)C(=O)C(=O)N[C@@H](C)c1ccccc1` (some centres unmarked): the Ki lay in the range of 1 to 100 nM.
In the case of `CCCC(NC(=O)[C@@H]1[C@@H]2[C@H](CN1C(=O)[C@@H](NC(=O)OC(C)(C)C)C1Cc3ccccc3C1)C2(C)C)C(=O)C(=O)NCCC(=O)N(C)C(C)(C)C` (some centres unmarked), the inhibitory constant (Ki) lay within 101 to 1000 nM.
Still for that read-out and setting: with `CCCC(NC(=O)[C@@H]1[C@@H]2[C@H](CN1C(=O)[C@@H](NC(=O)OC(C)(C)C)C1Cc3ccccc3C1)C2(C)C)C(=O)C(=O)NCCC(=O)NC(C)(C)C` (some centres unmarked) the figure was 101 to 1000 nM; with `C=CCCC(NC(=O)[C@@H]1[C@@H]2[C@H](CN1C(=O)[C@@H](NC(=O)NC(C)(C)C)C(C)(C)C)C2(C)C)C(=O)C(=O)NCCS(C)(=O)=O` (some centres unmarked), 101 to 1000 nM; with `CC(C)(C)OC(=O)N[C@H](C(=O)N1C[C@H]2[C@@H]([C@H]1C(=O)NC(CC1CC1)C(=O)C(=O)NCC(=O)OC(C)(C)c1ccccc1)C2(C)C)C(C)(C)C` (some centres unmarked), 1 to 100 nM.
Same read-out and setting: with `CC(C)(C)OC(=O)N[C@H](C(=O)N1C[C@H]2[C@@H]([C@H]1C(=O)NC(CC1CC1)C(=O)C(=O)NCCS(=O)(=O)Cc1ccccc1)C2(C)C)C(C)(C)C` (some centres unmarked) the figure was 1 to 100 nM; with `CCCC(NC(=O)[C@@H]1[C@@H]2[C@H](CN1C(=O)[C@@H](NC(=O)OC(C)(C)C)C1Cc3ccccc3C1)C2(C)C)C(=O)C(=O)NCCC(=O)N1CCOCC1` (some centres unmarked), 101 to 1000 nM.
The same measure, in the same setting: with `CC(C)(C)OC(=O)N[C@H](C(=O)N1C[C@H]2[C@@H]([C@H]1C(=O)NC(CC1CCC1)C(=O)C(=O)NC1CC1)C2(Cl)Cl)C(C)(C)C` (some centres unmarked) the figure was 101 to 1000 nM; with `C=CCCC(NC(=O)[C@@H]1[C@@H]2[C@H](CN1C(=O)[C@@H](NC(=O)OC(C)(C)C)C1CCC(=O)CC1)C2(C)C)C(=O)C(=O)NCCC(=O)OC(C)(C)C` (some centres unmarked), 1 to 100 nM.
`C=CCCC(NC(=O)[C@@H]1[C@@H]2[C@H](CN1C(=O)[C@@H](NC(=O)NC(C)(C)C)C1CCCCC1)C2(C)C)C(=O)C(=O)NCC(=O)OC(C)(C)C` (some centres unmarked): the Ki lay within 101 to 1000 nM.
Same read-out and setting: with `CC(C)(C)NC(=O)N[C@H](C(=O)N1C[C@H]2[C@@H]([C@H]1C(=O)NC(CC1CCC1)C(=O)C(=O)NCC(=O)OC(C)(C)c1ccccc1)C2(C)C)C(C)(C)C` (some centres unmarked) the figure was 1 to 100 nM.
